Experimental data published in publication PMC3084262.
Like-named read-outs stand apart in the source and are kept apart here. These are yes or no findings as the source states them, for the method shown. Binding seen in cells or lysates may run through a third protein. Some results given as binding are weak or reduced against the parent protein; the word gives no strength. For some assays here: Sequences can lack the tags named with a protein.

Amino acid sequences for entries named in this document (tags omitted).
UniProt P14922: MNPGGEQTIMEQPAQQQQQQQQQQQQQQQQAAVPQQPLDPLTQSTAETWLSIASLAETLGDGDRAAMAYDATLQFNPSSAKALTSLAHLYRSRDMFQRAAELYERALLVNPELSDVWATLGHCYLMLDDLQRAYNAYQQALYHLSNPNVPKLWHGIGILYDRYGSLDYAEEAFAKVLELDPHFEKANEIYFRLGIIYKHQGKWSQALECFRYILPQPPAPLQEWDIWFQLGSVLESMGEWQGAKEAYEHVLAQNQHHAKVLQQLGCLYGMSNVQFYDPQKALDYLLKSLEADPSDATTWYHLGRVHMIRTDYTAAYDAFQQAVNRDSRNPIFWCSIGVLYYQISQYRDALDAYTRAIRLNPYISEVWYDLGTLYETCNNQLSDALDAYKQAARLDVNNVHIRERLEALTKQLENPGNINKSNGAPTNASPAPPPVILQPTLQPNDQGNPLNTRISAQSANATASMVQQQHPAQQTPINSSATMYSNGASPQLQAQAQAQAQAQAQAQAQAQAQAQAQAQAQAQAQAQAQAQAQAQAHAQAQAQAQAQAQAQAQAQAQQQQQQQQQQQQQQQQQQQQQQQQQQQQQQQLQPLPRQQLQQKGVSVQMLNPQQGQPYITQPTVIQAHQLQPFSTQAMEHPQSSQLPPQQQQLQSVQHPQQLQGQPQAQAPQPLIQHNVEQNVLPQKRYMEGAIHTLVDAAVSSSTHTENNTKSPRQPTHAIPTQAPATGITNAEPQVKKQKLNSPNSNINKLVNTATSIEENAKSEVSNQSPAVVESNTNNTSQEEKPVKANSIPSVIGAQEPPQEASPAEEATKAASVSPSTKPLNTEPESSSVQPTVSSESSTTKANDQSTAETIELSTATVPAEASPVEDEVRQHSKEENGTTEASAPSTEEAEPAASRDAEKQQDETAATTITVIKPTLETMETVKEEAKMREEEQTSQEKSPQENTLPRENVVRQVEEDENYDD
UniProt P38889: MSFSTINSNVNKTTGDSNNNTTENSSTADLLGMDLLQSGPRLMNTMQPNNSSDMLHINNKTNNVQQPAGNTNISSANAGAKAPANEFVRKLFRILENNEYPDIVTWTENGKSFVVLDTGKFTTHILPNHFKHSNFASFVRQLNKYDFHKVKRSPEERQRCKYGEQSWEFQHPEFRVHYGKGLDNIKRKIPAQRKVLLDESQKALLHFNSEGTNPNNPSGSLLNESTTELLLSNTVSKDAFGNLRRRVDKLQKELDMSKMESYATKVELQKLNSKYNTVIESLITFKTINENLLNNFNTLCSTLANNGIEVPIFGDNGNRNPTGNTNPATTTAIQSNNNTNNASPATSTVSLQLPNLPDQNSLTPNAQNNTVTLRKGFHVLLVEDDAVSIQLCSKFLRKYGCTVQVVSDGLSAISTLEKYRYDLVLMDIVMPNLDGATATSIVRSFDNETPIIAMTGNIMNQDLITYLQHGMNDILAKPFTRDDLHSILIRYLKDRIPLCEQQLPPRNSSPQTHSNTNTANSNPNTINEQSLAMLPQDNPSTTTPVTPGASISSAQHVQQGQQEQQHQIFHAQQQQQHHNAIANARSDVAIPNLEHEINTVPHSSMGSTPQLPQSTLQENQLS

Tests used:
[1] = target: Ssn6 (S. cerevisiae (endogenous in yeast cells)) (UniProt P14922); experiment: co-IP; second set (Figure 4B, longer exposure in Figure S2): anti-Ssn6 antibody IP from cleared yeast lysates of strains with Tup1-HA and a Myc-tagged protein, anti-HA and anti-Myc blots; Co-IP buffer 50 mM Tris-Cl pH 7.4, 250 mM NaCl, 5 mM EDTA, 0.1% NP40; last wash 500 mM NaCl; 4°C
[2] = target: Ssn6 (S. cerevisiae (endogenous in yeast cells)) (UniProt P14922); experiment: co-IP; Figure 4D: anti-Ssn6 antibody IP from yeast extract treated with DNAse I (100 U/µl) before the IP; EDTA omitted from the Co-IP buffer, then added to 10 mM to stop the reaction; 4°C
[3] = target: Ssn6 (S. cerevisiae (endogenous in yeast cells)) (UniProt P14922); experiment: co-IP; first experiment (Figure 4A): anti-Ssn6 antibody IP from cleared yeast lysates of strains with Myc-tagged proteins, anti-Myc blot; Co-IP buffer 50 mM Tris-Cl pH 7.4, 250 mM NaCl, 5 mM EDTA, 0.1% NP40; last wash 500 mM NaCl; 4°C
[4] = target: Tup1-HA (S. cerevisiae) (UniProt P16649); experiment: co-IP; third experiment (Figure 4C): anti-HA antibody IP of Tup1-HA from cleared yeast lysates of strains with a Myc-tagged protein, anti-Ssn6 and anti-Myc blots; Co-IP buffer 50 mM Tris-Cl pH 7.4, 250 mM NaCl, 5 mM EDTA, 0.1% NP40; last wash 500 mM NaCl; 4°C
[5] = target: Tup1-HA (S. cerevisiae) (UniProt P16649); experiment: as above; remark: listed apart in the source
[6] = target: T1, Tup1-HA (S. cerevisiae), P16649; experiment: as above; details: remark: other sources report otherwise
T1 chain: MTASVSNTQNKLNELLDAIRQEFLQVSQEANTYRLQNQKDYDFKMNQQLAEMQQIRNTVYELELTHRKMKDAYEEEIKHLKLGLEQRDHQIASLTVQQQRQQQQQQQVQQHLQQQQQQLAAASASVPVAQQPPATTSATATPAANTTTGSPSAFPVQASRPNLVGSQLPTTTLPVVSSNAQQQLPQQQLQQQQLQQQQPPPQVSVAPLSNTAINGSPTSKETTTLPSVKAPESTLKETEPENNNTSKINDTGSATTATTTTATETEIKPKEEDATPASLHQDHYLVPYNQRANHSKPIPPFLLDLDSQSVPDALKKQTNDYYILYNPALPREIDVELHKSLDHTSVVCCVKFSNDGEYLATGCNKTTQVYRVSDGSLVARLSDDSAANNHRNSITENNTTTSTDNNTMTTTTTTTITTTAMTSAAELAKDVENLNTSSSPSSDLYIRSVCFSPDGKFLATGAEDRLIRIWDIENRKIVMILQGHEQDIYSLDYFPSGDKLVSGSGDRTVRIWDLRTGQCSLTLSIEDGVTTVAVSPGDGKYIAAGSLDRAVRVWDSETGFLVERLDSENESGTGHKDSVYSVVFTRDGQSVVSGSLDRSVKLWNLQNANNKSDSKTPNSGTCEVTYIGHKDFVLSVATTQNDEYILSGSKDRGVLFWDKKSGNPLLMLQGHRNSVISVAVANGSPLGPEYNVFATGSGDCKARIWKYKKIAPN

With Tup1-HA (from UniProt P16649 1-713) the binding [1] was “binds”.

“Myc-tagged Skn7 (from UniProt P38889 1-622)” was tested, and the binding [2] was “binds”, the binding [3] was “binds” and the binding [1] was “binds”. For the same molecule, the binding [4] was “binds”.

With Ssn6 (from UniProt P14922 1-966) the binding [4] was “binds”.

Tup1-MYC (from UniProt P16649 1-713) was tested, and the binding [3] was “binds”.

B1: Myc-tagged Phd1 (protein, UniProt P36093 1-366)
chain: MYHVPEMRLHYPLVNTQSNAAITPTRSYDNTLPSFNELSHQSTINLPFVQRETPNAYANVAQLATSPTQAKSGYYCRYYAVPFPTYPQQPQSPYQQAVLPYATIPNSNFQPSSFPVMAVMPPEVQFDGSFLNTLHPHTELPPIIQNTNDTSVARPNNLKSIAAASPTVTATTRTPGVSSTSVLKPRVITTMWEDENTICYQVEANGISVVRRADNNMINGTKLLNVTKMTRGRRDGILRSEKVREVVKIGSMHLKGVWIPFERAYILAQREQILDHLYPLFVKDIESIVDARKPSNKASLTPKSSPAPIKQEPSDNKHEIATEIKPKSIDALSNGASTQGAGELPHLKINHIDTEAQTSRAKNELS
B1 was tested, and the binding [2] was “binds”, the binding [5] was “binds weakly” and the binding [3] was “binds weakly”. The binding [1] was “binds”.

B2: Myc-tagged Yap6 (protein, UniProt Q03935 1-383)
chain: MQNPPLIRPDMYNQGSSSMATYNASEKNLNEHPSPQIAQPSTSQKLPYRINPTTTNGDTDISVNSNPIQPPLPNLMHLSGPSDYRSMHQSPIHPSYIIPPHSNERKQSASYNRPQNAHVSIQPSVVFPPKSYSISYAPYQINPPLPNGLPNQSISLNKEYIAEEQLSTLPSRNTSVTTAPPSFQNSADTAKNSADNNDNNDNVTKPVPDKDTQLISSSGKTLRNTRRAAQNRTAQKAFRQRKEKYIKNLEQKSKIFDDLLAENNNFKSLNDSLRNDNNILIAQHEAIRNAITMLRSEYDVLCNENNMLKNENSIIKNEHNMSRNENENLKLENKRFHAEYIRMIEDIENTKRKEQEQRDEIEQLKKKIRSLEEIVGRHSDSAT
B2 was tested, and the binding [2] was “binds”, the binding [5] was “binds weakly” and the binding [3] was “binds”. The binding [1] was “binds”.

B3: Myc-tagged Cin5 (protein, UniProt P40917 1-295)
chain: MLMQIKMDNHPFNFQPILASHSMTRDSTKPKKMTDTAFVPSPPVGFIKEENKADLHTISVVASNVTLPQIQLPKIATLEEPGYESRTGSLTDLSGRRNSVNIGALCEDVPNTAGPHIARPVTINNLIPPSLPRLNTYQLRPQLSDTHLNCHFNSNPYTTASHAPFESSYTTASTFTSQPAASYFPSNSTPATRKNSATTNLPSEERRRVSVSLSEQVFNEGERYNNDGQLIGKTGKPLRNTKRAAQNRSAQKAFRQRREKYIKNLEEKSKLFDGLMKENSELKKMIESLKSKLKE
With B3 the binding [5] was “binds weakly”.

B4: Myc-tagged Nrg1 (protein, UniProt Q03125 1-231)
chain: MFYPYNYSNLNVSTMPALPGISAFDGMQDEENVEISPERKYQTLLPVLTNSHVVENELKHKLNKTAFDFRYQTKSENGSEKWEPKYLITPNLQTRSVSFDNSSVQYNSDSSEKSSLSQLTCNSSIIQQPENGIVSNDAYNKMANSRYSLKTRKQRTDPRNTLSDEEDLEQRRKYICKICARGFTTSGHLARHNRIHTGEKNHCCPYKGCTQRFSRHDNCLQHYRTHLKKGQ
B4 was tested, and the binding [5] was “binds weakly”.

B5: Myc-tagged Hap3 (protein, UniProt P13434 1-144)
chain: MNTNESEHVSTSPEDTQENGGNASSSGSLQQISTLREQDRWLPINNVARLMKNTLPPSAKVSKDAKECMQECVSELISFVTSEASDRCAADKRKTINGEDILISLHALGFENYAEVLKIYLAKYRQQQALKNQLMYEQDDEEVP
For B5, the binding [3] was “no binding” and the binding [1] was “no binding”.

B6: Myc-tagged Sko1, Q02100 1-647 (protein)
chain: MSSEERSRQPSTVSTFDLEPNPFEQSFASSKKALSLPGTISHPSLPKELSRNNSTSTITQHSQRSTHSLNSIPEENGNSTVTDNSNHNDVKKDSPSFLPGQQRPTIISPPILTPGGSKRLPPLLLSPSILYQANSTTNPSQNSHSVSVSNSNPSAIGVSSTSGSLYPNSSSPSGTSLIRQPRNSNVTTSNSGNGFPTNDSQMPGFLLNLSKSGLTPNESNIRTGLTPGILTQSYNYPVLPSINKNTITGSKNVNKSVTVNGSIENHPHVNIMHPTVNGTPLTPGLSSLLNLPSTGVLANPVFKSTPTTNTTDGTVNNSISNSNFSPNTSTKAAVKMDNPAEFNAIEHSAHNHKENENLTTQIENNDQFNNKTRKRKRRMSSTSSTSKASRKNSISRKNSAVTTAPAQKDDVENNKISNNVTLDENEEQERKRKEFLERNRVAASKFRKRKKEYIKKIENDLQFYESEYDDLTQVIGKLCGIIPSSSSNSQFNVNVSTPSSSSPPSTSLIALLESSISRSDYSSAMSVLSNMKQLICETNFYRRGGKNPRDDMDGQEDSFNKDTNVVKSENAGYPSVNSRPIILDKKYSLNSGANISKSNTTTNNVGNSAQNIINSCYSVTNPLVINANSDTHDTNKHDVLSTLPHNN
For B6, the binding [6] was “no binding”.
